From publication PMC12820563
The list shows a part of the results. The list includes weakly bound sequences.

biological target: T1, MBP-FoxP3dN (UniProt Q99JB6); experiment: PD-seq (MBP pull-down with sequencing); conditions: 20 mM Tris-HCl pH 7.5, 100 mM NaCl, 1.5 mM MgCl2, 0.4 uM protein, 0.1 uM dsDNA library, 30 min, room temperature, amylose pull-down; high values mean tight binding; double strand, one strand shown
T1 sequence: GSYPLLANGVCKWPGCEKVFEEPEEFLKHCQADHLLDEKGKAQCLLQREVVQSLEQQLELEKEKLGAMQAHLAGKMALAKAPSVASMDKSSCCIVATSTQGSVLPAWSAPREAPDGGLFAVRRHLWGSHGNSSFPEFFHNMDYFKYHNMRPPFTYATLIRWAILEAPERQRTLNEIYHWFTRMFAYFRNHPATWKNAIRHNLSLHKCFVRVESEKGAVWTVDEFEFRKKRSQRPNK

Sequence | binding signal (RPM ratio (pull-down/input))
GATGATTGTTCTCCCAGCTGATGAATTAGCGGAATCGAGTAAACAAATTTTCCTAATCTTTCTGTTCAAGCGCCATCTAC | 0.214
GATGATTGTTCTCCCAGCTGATGAATTAGCTGGTTCGAGTAAACAAATTTTCCTAATCTTTCTGTTCAAGCGCCATCTAC | 1.21
GATGATTGTTCTCCCAGCTGATGAATTTCGGTACTCGAGTAAACAAATTTTCCTAATCTTTCTGTTCAAGCGCCATCTAC | 0.521
GATGATTGTTCTCCCAGCTGATGAATTCTTCATTTCGAGTAAACAAATTTTCCTAATCTTTCTGTTCAAGCGCCATCTAC | 0.277
GATGATTGTTCTCCCAGCTGATGAATTAGCCGGGTCGAGTAAACAAATTTTCCTAATCTTTCTGTTCAAGCGCCATCTAC | 0.179
GATGATTGTTCTCCCAGCTGATGAATTCGTTGCGTCGAGTAAACAAATTTTCCTAATCTTTCTGTTCAAGCGCCATCTAC | 2.16
GATGATTGTTCTCCCAGCTGATGAATTTCTCATGTCGAGTAAACAAATTTTCCTAATCTTTCTGTTCAAGCGCCATCTAC | 0.32
GATGATTGTTCTCCCAGCTGATGAATTTAAATCATCGAGTAAACAAATTTTCCTAATCTTTCTGTTCAAGCGCCATCTAC | 0.449
GATGATTGTTCTCCCAGCTGATGAATTATTCAGGTCGAGTAAACAAATTTTCCTAATCTTTCTGTTCAAGCGCCATCTAC | 0.225
GATGATTGTTCTCCCAGCTGATGAATTCTTCTAGTCGAGTAAACAAATTTTCCTAATCTTTCTGTTCAAGCGCCATCTAC | 0.198
GATGATTGTTCTCCCAGCTGATGAATTTCGACGATCGAGTAAACAAATTTTCCTAATCTTTCTGTTCAAGCGCCATCTAC | 0.311
GATGATTGTTCTCCCAGCTGATGAATTACCACTTTCGAGTAAACAAATTTTCCTAATCTTTCTGTTCAAGCGCCATCTAC | 0.439
GATGATTGTTCTCCCAGCTGATGAATTAATGACGTCGAGTAAACAAATTTTCCTAATCTTTCTGTTCAAGCGCCATCTAC | 0.44
GATGATTGTTCTCCCAGCTGATGAATTGTTCTATTCGAGTAAACAAATTTTCCTAATCTTTCTGTTCAAGCGCCATCTAC | 0.463
GATGATTGTTCTCCCAGCTGATGAATTGGACAAATCGAGTAAACAAATTTTCCTAATCTTTCTGTTCAAGCGCCATCTAC | 0.229
GATGATTGTTCTCCCAGCTGATGAATTTAGGTCGTCGAGTAAACAAATTTTCCTAATCTTTCTGTTCAAGCGCCATCTAC | 0.567
GATGATTGTTCTCCCAGCTGATGAATTCTGGGCGTCGAGTAAACAAATTTTCCTAATCTTTCTGTTCAAGCGCCATCTAC | 0.468
GATGATTGTTCTCCCAGCTGATGAATTGAGGAGGTCGAGTAAACAAATTTTCCTAATCTTTCTGTTCAAGCGCCATCTAC | 0.219
GATGATTGTTCTCCCAGCTGATGAATTGAAGTCGTCGAGTAAACAAATTTTCCTAATCTTTCTGTTCAAGCGCCATCTAC | 0.348
GATGATTGTTCTCCCAGCTGATGAATTGAGTGCATCGAGTAAACAAATTTTCCTAATCTTTCTGTTCAAGCGCCATCTAC | 1.65
GATGATTGTTCTCCCAGCTGATGAATTAAGCGCGTCGAGTAAACAAATTTTCCTAATCTTTCTGTTCAAGCGCCATCTAC | 1.4

Sequence | binding signal (RPM ratio (pull-down/input))
GATGATTGTTCTCCCAGCTGATGAATTATAGTCGTCGAGTAAACAAATTTTCCTAATCTTTCTGTTCAAGCGCCATCTAC | 0.563
GATGATTGTTCTCCCAGCTGATGAATTTTGGGGGTCGAGTAAACAAATTTTCCTAATCTTTCTGTTCAAGCGCCATCTAC | 0.483
GATGATTGTTCTCCCAGCTGATGAATTGTCTAGCTCGAGTAAACAAATTTTCCTAATCTTTCTGTTCAAGCGCCATCTAC | 0.355
GATGATTGTTCTCCCAGCTGATGAATTATTCAGCTCGAGTAAACAAATTTTCCTAATCTTTCTGTTCAAGCGCCATCTAC | 0.274
GATGATTGTTCTCCCAGCTGATGAATTCATCTGGTCGAGTAAACAAATTTTCCTAATCTTTCTGTTCAAGCGCCATCTAC | 0.33
GATGATTGTTCTCCCAGCTGATGAATTGTGATCATCGAGTAAACAAATTTTCCTAATCTTTCTGTTCAAGCGCCATCTAC | 1.34
GATGATTGTTCTCCCAGCTGATGAATTGAAGGCCTCGAGTAAACAAATTTTCCTAATCTTTCTGTTCAAGCGCCATCTAC | 0.478
GATGATTGTTCTCCCAGCTGATGAATTTGAACCTTCGAGTAAACAAATTTTCCTAATCTTTCTGTTCAAGCGCCATCTAC | 0.302
GATGATTGTTCTCCCAGCTGATGAATTTCCCATATCGAGTAAACAAATTTTCCTAATCTTTCTGTTCAAGCGCCATCTAC | 0.29
GATGATTGTTCTCCCAGCTGATGAATTGAGTTCGTCGAGTAAACAAATTTTCCTAATCTTTCTGTTCAAGCGCCATCTAC | 0.569
GATGATTGTTCTCCCAGCTGATGAATTTCTATCCTCGAGTAAACAAATTTTCCTAATCTTTCTGTTCAAGCGCCATCTAC | 0.336
GATGATTGTTCTCCCAGCTGATGAATTATCAATATCGAGTAAACAAATTTTCCTAATCTTTCTGTTCAAGCGCCATCTAC | 0.732
GATGATTGTTCTCCCAGCTGATGAATTCGTAATCTCGAGTAAACAAATTTTCCTAATCTTTCTGTTCAAGCGCCATCTAC | 0.67
GATGATTGTTCTCCCAGCTGATGAATTCGTTAGTTCGAGTAAACAAATTTTCCTAATCTTTCTGTTCAAGCGCCATCTAC | 2.91
GATGATTGTTCTCCCAGCTGATGAATTGAGGCGTTCGAGTAAACAAATTTTCCTAATCTTTCTGTTCAAGCGCCATCTAC | 1.51
GATGATTGTTCTCCCAGCTGATGAATTCATAGGATCGAGTAAACAAATTTTCCTAATCTTTCTGTTCAAGCGCCATCTAC | 0.267
GATGATTGTTCTCCCAGCTGATGAATTCACTCTGTCGAGTAAACAAATTTTCCTAATCTTTCTGTTCAAGCGCCATCTAC | 0.278
GATGATTGTTCTCCCAGCTGATGAATTCACCTACTCGAGTAAACAAATTTTCCTAATCTTTCTGTTCAAGCGCCATCTAC | 0.375
GATGATTGTTCTCCCAGCTGATGAATTTTACTAATCGAGTAAACAAATTTTCCTAATCTTTCTGTTCAAGCGCCATCTAC | 0.294
GATGATTGTTCTCCCAGCTGATGAATTAATTTATTCGAGTAAACAAATTTTCCTAATCTTTCTGTTCAAGCGCCATCTAC | 2.61
GATGATTGTTCTCCCAGCTGATGAATTTTGCTATTCGAGTAAACAAATTTTCCTAATCTTTCTGTTCAAGCGCCATCTAC | 5.16

Sequence | binding signal (RPM ratio (pull-down/input))
GATGATTGTTCTCCCAGCTGATGAATTTTTTTTGTCGAGTAAACAAATTTTCCTAATCTTTCTGTTCAAGCGCCATCTAC | 0.36
GATGATTGTTCTCCCAGCTGATGAATTGTACCTCTCGAGTAAACAAATTTTCCTAATCTTTCTGTTCAAGCGCCATCTAC | 0.593
GATGATTGTTCTCCCAGCTGATGAATTCCACGCTTCGAGTAAACAAATTTTCCTAATCTTTCTGTTCAAGCGCCATCTAC | 0.518
GATGATTGTTCTCCCAGCTGATGAATTCTCCATATCGAGTAAACAAATTTTCCTAATCTTTCTGTTCAAGCGCCATCTAC | 0.269
GATGATTGTTCTCCCAGCTGATGAATTCGTGGCCTCGAGTAAACAAATTTTCCTAATCTTTCTGTTCAAGCGCCATCTAC | 0.847
GATGATTGTTCTCCCAGCTGATGAATTCGTCCAATCGAGTAAACAAATTTTCCTAATCTTTCTGTTCAAGCGCCATCTAC | 0.252
GATGATTGTTCTCCCAGCTGATGAATTGTACCACTCGAGTAAACAAATTTTCCTAATCTTTCTGTTCAAGCGCCATCTAC | 0.629
GATGATTGTTCTCCCAGCTGATGAATTTCCCGAATCGAGTAAACAAATTTTCCTAATCTTTCTGTTCAAGCGCCATCTAC | 0.191
GATGATTGTTCTCCCAGCTGATGAATTTGGTGAATCGAGTAAACAAATTTTCCTAATCTTTCTGTTCAAGCGCCATCTAC | 0.367
GATGATTGTTCTCCCAGCTGATGAATTAATGACATCGAGTAAACAAATTTTCCTAATCTTTCTGTTCAAGCGCCATCTAC | 0.775
GATGATTGTTCTCCCAGCTGATGAATTTATACAGTCGAGTAAACAAATTTTCCTAATCTTTCTGTTCAAGCGCCATCTAC | 0.558
GATGATTGTTCTCCCAGCTGATGAATTGCAGAGCTCGAGTAAACAAATTTTCCTAATCTTTCTGTTCAAGCGCCATCTAC | 0.414
GATGATTGTTCTCCCAGCTGATGAATTACGAAGGTCGAGTAAACAAATTTTCCTAATCTTTCTGTTCAAGCGCCATCTAC | 0.285
GATGATTGTTCTCCCAGCTGATGAATTGTGTGATTCGAGTAAACAAATTTTCCTAATCTTTCTGTTCAAGCGCCATCTAC | 5.27
GATGATTGTTCTCCCAGCTGATGAATTAGTAGCCTCGAGTAAACAAATTTTCCTAATCTTTCTGTTCAAGCGCCATCTAC | 1.23
GATGATTGTTCTCCCAGCTGATGAATTAAGAAGGTCGAGTAAACAAATTTTCCTAATCTTTCTGTTCAAGCGCCATCTAC | 0.191
GATGATTGTTCTCCCAGCTGATGAATTCTTTCCCTCGAGTAAACAAATTTTCCTAATCTTTCTGTTCAAGCGCCATCTAC | 0.206
GATGATTGTTCTCCCAGCTGATGAATTACAAAGCTCGAGTAAACAAATTTTCCTAATCTTTCTGTTCAAGCGCCATCTAC | 0.413
GATGATTGTTCTCCCAGCTGATGAATTCGTTCCCTCGAGTAAACAAATTTTCCTAATCTTTCTGTTCAAGCGCCATCTAC | 0.393
GATGATTGTTCTCCCAGCTGATGAATTGCTGTTCTCGAGTAAACAAATTTTCCTAATCTTTCTGTTCAAGCGCCATCTAC | 1.54
GATGATTGTTCTCCCAGCTGATGAATTTTGTCCATCGAGTAAACAAATTTTCCTAATCTTTCTGTTCAAGCGCCATCTAC | 1.43
